Measurements published in publication PMC6208770.
These are yes or no findings as the source states them, for the method shown. Binding seen in cells or lysates may run through a third protein. Some results given as binding are weak or reduced against the parent protein; the word gives no strength. For some assays here: Sequences can lack the tags named with a protein.

Key:
[1] = target: T1, recombinant GST-tagged OGT (O-GlcNAc transferase) (UniProt O15294); test: pull-down; GST–OGT or GST immobilised on Glutathione Sepharose beads; soluble and chromatin-bound fractions of asynchronous MDA-MB-231 cells; Western blot; only the target purified
T1 sequence: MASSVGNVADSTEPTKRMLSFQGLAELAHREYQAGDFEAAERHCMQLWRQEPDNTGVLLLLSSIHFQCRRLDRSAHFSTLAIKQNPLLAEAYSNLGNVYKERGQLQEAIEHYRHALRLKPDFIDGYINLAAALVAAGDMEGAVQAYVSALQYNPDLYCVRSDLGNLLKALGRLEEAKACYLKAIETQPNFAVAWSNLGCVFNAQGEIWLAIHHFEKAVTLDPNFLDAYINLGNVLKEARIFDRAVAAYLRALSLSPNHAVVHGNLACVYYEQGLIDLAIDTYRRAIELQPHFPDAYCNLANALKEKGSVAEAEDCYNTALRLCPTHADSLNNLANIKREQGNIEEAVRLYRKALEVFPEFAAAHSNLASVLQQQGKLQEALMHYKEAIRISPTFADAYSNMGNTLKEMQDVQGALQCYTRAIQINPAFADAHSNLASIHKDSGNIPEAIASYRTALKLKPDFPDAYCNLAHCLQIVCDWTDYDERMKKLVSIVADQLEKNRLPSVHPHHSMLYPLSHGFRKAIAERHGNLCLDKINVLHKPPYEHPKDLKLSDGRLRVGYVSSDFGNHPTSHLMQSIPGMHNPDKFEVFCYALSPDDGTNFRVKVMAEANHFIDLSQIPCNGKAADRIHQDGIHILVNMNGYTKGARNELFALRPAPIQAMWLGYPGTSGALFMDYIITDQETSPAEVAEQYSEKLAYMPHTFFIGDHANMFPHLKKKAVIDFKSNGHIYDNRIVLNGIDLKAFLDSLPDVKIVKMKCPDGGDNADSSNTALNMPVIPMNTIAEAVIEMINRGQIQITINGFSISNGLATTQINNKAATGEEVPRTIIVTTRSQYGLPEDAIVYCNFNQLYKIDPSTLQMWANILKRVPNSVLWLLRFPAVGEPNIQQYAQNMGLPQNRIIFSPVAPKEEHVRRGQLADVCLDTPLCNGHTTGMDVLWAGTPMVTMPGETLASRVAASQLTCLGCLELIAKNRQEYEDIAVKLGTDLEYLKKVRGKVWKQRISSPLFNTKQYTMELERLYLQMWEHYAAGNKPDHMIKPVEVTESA

[2] = target: T1, recombinant GST-tagged OGT (O-GlcNAc transferase); test: pull-down; GST–OGT or GST immobilised on Glutathione Sepharose beads as bait; chromatin-bound fraction (700 µg) of asynchronous MCF7 cells as prey, overnight at 4 °C; washes in PBS with 0.1% Triton X-100, up to 150 mM NaCl more; elution with glutathione; Western blot; only the target purified
[3] = target: T1, recombinant GST-tagged OGT (O-GlcNAc transferase); test: pull-down; GST–OGT or GST immobilised on Glutathione Sepharose beads as bait; soluble nucleocytoplasmic fraction (700 µg) of asynchronous MCF7 cells as prey, overnight at 4 °C; washes in PBS with 0.1% Triton X-100, up to 150 mM NaCl more; elution with glutathione; Western blot; only the target purified
[4] = target: T2, endogenous OGT (O-GlcNAc transferase) (human (endogenous in MCF7)) (UniProt O15294); test: proximity ligation; in situ PLA (Duolink) in fixed asynchronous MCF7 cells, permeabilised 2 min with 0.5% Triton X-100 in PBS; endogenous OGT and MCM; controls with only one primary antibody
T2 sequence: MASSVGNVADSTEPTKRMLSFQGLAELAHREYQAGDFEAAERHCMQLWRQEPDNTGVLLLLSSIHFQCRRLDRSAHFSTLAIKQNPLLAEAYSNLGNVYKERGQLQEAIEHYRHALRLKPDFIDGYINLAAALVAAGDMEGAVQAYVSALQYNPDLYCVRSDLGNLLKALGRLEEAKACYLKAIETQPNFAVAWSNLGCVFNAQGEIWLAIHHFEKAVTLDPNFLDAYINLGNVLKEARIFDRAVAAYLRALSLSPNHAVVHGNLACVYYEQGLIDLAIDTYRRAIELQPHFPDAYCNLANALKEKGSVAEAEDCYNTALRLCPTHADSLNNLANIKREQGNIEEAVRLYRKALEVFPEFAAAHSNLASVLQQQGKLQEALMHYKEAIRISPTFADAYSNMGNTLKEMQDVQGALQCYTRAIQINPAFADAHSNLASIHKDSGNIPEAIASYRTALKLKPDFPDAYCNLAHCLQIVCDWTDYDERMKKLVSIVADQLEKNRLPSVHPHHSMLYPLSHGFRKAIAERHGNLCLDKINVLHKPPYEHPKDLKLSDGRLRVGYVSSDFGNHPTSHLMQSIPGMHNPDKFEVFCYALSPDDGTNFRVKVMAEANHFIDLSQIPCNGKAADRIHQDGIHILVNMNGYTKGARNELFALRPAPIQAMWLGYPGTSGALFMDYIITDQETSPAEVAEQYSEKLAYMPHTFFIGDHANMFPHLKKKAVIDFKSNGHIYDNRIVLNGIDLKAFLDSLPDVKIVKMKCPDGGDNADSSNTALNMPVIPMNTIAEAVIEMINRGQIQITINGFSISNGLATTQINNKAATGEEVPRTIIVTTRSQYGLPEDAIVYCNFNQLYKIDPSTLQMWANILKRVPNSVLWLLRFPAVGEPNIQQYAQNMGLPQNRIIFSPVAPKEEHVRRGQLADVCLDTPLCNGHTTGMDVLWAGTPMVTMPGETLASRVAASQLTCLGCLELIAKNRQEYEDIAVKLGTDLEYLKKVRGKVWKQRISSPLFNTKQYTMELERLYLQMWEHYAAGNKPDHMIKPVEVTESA

HA-tagged OGT = target: T3, HA-tagged OGT (UniProt O15294); test: co-IP; whole cell extracts of HEK293T cells transiently transfected with HA-OGT; immunoprecipitation of either OGT or MCM subunits; buffers without SDS, one wash with 300 mM NaCl; Western blot
T3 sequence: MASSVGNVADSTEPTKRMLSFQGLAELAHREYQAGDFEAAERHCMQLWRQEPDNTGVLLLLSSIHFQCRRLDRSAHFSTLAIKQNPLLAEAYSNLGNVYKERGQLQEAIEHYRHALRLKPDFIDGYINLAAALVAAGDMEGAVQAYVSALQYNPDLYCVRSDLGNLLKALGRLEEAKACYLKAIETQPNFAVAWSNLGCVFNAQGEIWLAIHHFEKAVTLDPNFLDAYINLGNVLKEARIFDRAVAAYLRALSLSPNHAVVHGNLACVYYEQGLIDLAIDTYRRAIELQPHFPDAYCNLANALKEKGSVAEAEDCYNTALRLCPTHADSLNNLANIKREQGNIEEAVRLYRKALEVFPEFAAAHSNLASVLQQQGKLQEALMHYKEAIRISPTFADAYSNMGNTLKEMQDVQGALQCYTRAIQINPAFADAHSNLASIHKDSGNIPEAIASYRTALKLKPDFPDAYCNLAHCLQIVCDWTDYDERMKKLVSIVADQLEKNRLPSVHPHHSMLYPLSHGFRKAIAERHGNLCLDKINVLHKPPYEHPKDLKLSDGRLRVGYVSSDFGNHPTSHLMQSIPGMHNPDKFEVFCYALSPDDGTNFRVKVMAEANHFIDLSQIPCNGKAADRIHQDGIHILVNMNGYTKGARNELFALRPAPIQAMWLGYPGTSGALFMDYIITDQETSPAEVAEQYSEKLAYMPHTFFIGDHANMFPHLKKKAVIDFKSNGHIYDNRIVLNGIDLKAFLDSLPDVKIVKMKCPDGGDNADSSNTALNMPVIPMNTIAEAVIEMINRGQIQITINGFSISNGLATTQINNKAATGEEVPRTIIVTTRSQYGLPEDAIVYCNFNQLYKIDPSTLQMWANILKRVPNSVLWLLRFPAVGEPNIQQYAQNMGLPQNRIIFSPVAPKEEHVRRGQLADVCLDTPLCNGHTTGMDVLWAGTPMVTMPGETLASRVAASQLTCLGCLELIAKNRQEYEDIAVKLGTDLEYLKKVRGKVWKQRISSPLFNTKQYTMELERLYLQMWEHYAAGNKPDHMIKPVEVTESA

Measured: binding

B1: minichromosome maintenance protein MCM5 (protein, UniProt P33992 1-734)
chain: MSGFDDPGIFYSDSFGGDAQADEGQARKSQLQRRFKEFLRQYRVGTDRTGFTFKYRDELKRHYNLGEYWIEVEMEDLASFDEDLADYLYKQPAEHLQLLEEAAKEVADEVTRPRPSGEEVLQDIQVMLKSDASPSSIRSLKSDMMSHLVKIPGIIIAASAVRAKATRISIQCRSCRNTLTNIAMRPGLEGYALPRKCNTDQAGRPKCPLDPYFIMPDKCKCVDFQTLKLQELPDAVPHGEMPRHMQLYCDRYLCDKVVPGNRVTIMGIYSIKKFGLTTSRGRDRVGVGIRSSYIRVLGIQVDTDGSGRSFAGAVSPQEEEEFRRLAALPNVYEVISKSIAPSIFGGTDMKKAIACLLFGGSRKRLPDGLTRRGDINLLMLGDPGTAKSQLLKFVEKCSPIGVYTSGKGSSAAGLTASVMRDPSSRNFIMEGGAMVLADGGVVCIDEFDKMREDDRVAIHEAMEQQTISIAKAGITTTLNSRCSVLAAANSVFGRWDETKGEDNIDFMPTILSRFDMIFIVKDEHNEERDVMLAKHVITLHVSALTQTQAVEGEIDLAKLKKFIAYCRVKCGPRLSAEAAEKLKNRYIIMRSGARQHERDSDRRSSIPITVRQLEAIVRIAEALSKMKLQPFATEADVEEALRLFQVSTLDAALSGTLSGVEGFTSQEDQEMLSRIEKQLKRRFAIGSQVSEHSIIKDFTKQKYPEHAIHKVLQLMLRRGEIQHRMQRKVLYRLK
binds: [1] | [2] | [3]

B2: minichromosome maintenance protein MCM3 (protein, UniProt P25205 1-808)
chain: MAGTVVLDDVELREAQRDYLDFLDDEEDQGIYQSKVRELISDNQYRLIVNVNDLRRKNEKRANRLLNNAFEELVAFQRALKDFVASIDATYAKQYEEFYVGLEGSFGSKHVSPRTLTSCFLSCVVCVEGIVTKCSLVRPKVVRSVHYCPATKKTIERRYSDLTTLVAFPSSSVYPTKDEENNPLETEYGLSVYKDHQTITIQEMPEKAPAGQLPRSVDVILDDDLVDKAKPGDRVQVVGTYRCLPGKKGGYTSGTFRTVLIACNVKQMSKDAQPSFSAEDIAKIKKFSKTRSKDIFDQLAKSLAPSIHGHDYVKKAILCLLLGGVERDLENGSHIRGDINILLIGDPSVAKSQLLRYVLCTAPRAIPTTGRGSSGVGLTAAVTTDQETGERRLEAGAMVLADRGVVCIDEFDKMSDMDRTAIHEVMEQGRVTIAKAGIHARLNARCSVLAAANPVYGRYDQYKTPMENIGLQDSLLSRFDLLFIMLDQMDPEQDREISDHVLRMHRYRAPGEQDGDAMPLGSAVDILATDDPNFSQEDQQDTQIYEKHDNLLHGTKKKKEKMVSAAFMKKYIHVAKIIKPVLTQESATYIAEEYSRLRSQDSMSSDTARTSPVTARTLETLIRLATAHAKARMSKTVDLQDAEEAVELVQYAYFKKVLEKEKKRKKRSEDESETEDEEEKSQEDQEQKRKRRKTRQPDAKDGDSYDPYDFSDTEEEMPQVHTPKTADSQETKESQKVELSESRLKAFKVALLDVFREAHAQSIGMNRLTESINRDSEEPFSSVEIQAALSKMQDDNQVMVSEGIIFLI
binds: [1] | [4] | HA-tagged OGT | [2] | [3]
